# Results taken from PubChem BioAssay AID1476 (National Center for Advancing Translational Sciences (NCATS), 2009).
# In all, about 200,000 compounds went through this assay and about 4,500 (2.2%) were called active. The inconclusive results got no clear call from the source; some entries with a clear call stand among them for comparison. The call rests on the fitted dose curve; in most records, active means well fitted inhibition curve with a large enough effect; inconclusive means small, poorly fitted or top-dose-only effect, or effect the other way; inactive means flat fitted curve, though single readings scatter. Potencies of inconclusive entries are doubtful fits and often do not repeat.
# Biological target: Cruzipain (Trypanosoma cruzi) (UniProt P25779)
# UniProt P25779, sequence (P25779 whole entry, looked up): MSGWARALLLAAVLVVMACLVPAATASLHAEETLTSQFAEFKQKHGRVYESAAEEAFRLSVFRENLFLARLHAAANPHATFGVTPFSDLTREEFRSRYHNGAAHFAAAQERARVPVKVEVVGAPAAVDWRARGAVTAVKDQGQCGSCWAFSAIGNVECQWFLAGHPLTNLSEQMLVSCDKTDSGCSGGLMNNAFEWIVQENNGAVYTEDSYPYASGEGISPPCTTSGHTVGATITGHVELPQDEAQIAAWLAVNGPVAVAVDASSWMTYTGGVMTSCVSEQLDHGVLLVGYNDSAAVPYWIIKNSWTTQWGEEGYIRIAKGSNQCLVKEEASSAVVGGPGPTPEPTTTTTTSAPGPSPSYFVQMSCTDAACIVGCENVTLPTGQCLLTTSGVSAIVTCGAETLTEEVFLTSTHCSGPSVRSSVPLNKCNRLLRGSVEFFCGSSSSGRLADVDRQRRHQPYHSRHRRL
# Assay: qHTS Assay for Promiscuous and Specific Inhibitors of Cruzain (without detergent); further: nearly all actives have a fitted effect of over 40% in size;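 on max response, negative = inhibition: plate controls were enzyme without inhibitor for no effect and buffer without enzyme for full effect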
# Settings: purified cruzain, Z-FR-AMC fluorescence, no detergent
# Outline: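 Detergent-free condition (0.00005% Triton X-100) in acetate buffer pH 5.5 with DTT. 1.5 nM enzyme and compound were pre-mixed 15 min, then 2 uM Z-FR-AMC substrate added; reaction progress from fluorescence change between first and third reads (60 s).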
# Potency means the concentration at half of the fitted maximal effect; tags describe the fitted curve by direction and shape.
Compound,"max response, negative = inhibition",Potency
Cc1cc(NC(=O)c2ccc(N(C)S(=O)(=O)c3ccccc3)cc2)no1,inactive: -2.31%,–
O=C(CNC(=O)C(c1ccccc1)c1ccccc1)N/N=C\c1ccc2c(c1)OCO2,–,"inconclusive: 31.6 µM [inhibitor, single point]"
CCN(CC)C(=O)CSc1nc(-c2ccc(C)cc2)nc2c1COC(C)(C)C2,–,"inconclusive: 31.6 µM [activator, single point]"
COC(=O)c1ccccc1NC(=O)C1CCN(S(=O)(=O)c2cc(OC)ccc2OC)CC1,–,"inconclusive: 39.8 µM [activator, single point]"
CC(C)(C)OC(=O)N1CCC(c2c(C(=O)NCc3ccco3)cnn2-c2ccccc2Cl)CC1,–,"inconclusive: 39.8 µM [activator, single point]"
Cn1c(O)c(N=NC(=O)c2cc(-c3cccs3)nc3ccccc23)c2ccccc21,–,active: 10 µM
CCOC(=O)c1sc(N)c(C(=O)OCC)c1COC(=O)C1CC(=O)N(Cc2ccco2)C1 (configuration not stated),–,"inconclusive: 20 µM [activator, single point]"
COc1ccc(OC)c(N2Cc3cc(C)c(C)cc3C2)c1,–,active: 15.8 µM
CCOC(=O)c1c(NC(=O)c2cc(C(C)C)on2)sc(C)c1C,inactive: -11.4%,–
CCCCc1cc(=O)oc2cc(OCc3nn[nH]n3)c(Cl)cc12,inactive: 2.13%,–
Cc1ccc(S(=O)(=O)C(CNC(=O)c2ccccc2F)c2cccs2)cc1 (configuration not stated),inactive: -12.5%,–
O=C(Nc1ccc(OC(F)F)c(Cl)c1)Nc1ccc2c(c1)OCO2,–,"inconclusive: 39.8 µM [inhibitor, single point]"
Cc1ccc(C2=NN3C(C(=O)c4ccccc4)Oc4ccccc4C3C2)cc1 (configuration not stated),–,"inconclusive: 31.6 µM [inhibitor, single point]"
Cc1nc(-c2ccc(C)c(S(=O)(=O)N3CCC(C(=O)NCc4ccc(Cl)cc4)CC3)c2)no1,inactive: 3.91%,–
COc1ccc(CCNC(=O)C2CCCN(c3nc4c(C)cc(C)cc4s3)C2)cc1OC (configuration not stated),–,"inconclusive: 6.31 µM [activator, single point]"
CC(C)CC(c1nnnn1C1CCCCC1)N1CCN(c2ncccn2)CC1 (configuration not stated),–,"inconclusive: 31.6 µM [activator, single point]"
COCCCNC(=O)c1ccc2c(=O)n(Cc3ccc(OC)cc3)c(=O)[nH]c2c1,inactive: 20.8%,–
O=C(CN1C(=O)COc2ccc(S(=O)(=O)N3CCOCC3)cc21)N1CCN(c2ccccc2)CC1,–,"inconclusive: 39.8 µM [activator, single point]"
COC(=O)[C@@H]1CC2=CC(=O)CC[C@]2(C)[C@@]23O[C@@H]2C[C@@]2(C)[C@H](CC[C@@]24CCC(=O)O4)[C@@H]13,inactive: -5.06%,–
O=C(NC(c1ccc(Cl)cc1)c1c(O)ccc2ccccc12)c1ccccc1 (configuration not stated),–,"inconclusive: 39.8 µM [inhibitor, single point]"
COc1ccc(-c2cc(C(F)(F)F)n3nc(C(=O)NCC45CC6CC(CC(C6)C4)C5)cc3n2)cc1,–,"inconclusive: 25.1 µM [inhibitor, single point]"

Compound,"max response, negative = inhibition",Potency
CCN(C(=O)COC(=O)CNC(=O)c1ccc(C)c(C)c1)C1CCS(=O)(=O)C1 (configuration not stated),–,active: 15.8 µM
Cc1ccc(SCC(=O)Nc2ccc(N3CCN(c4ccccc4)CC3)c(F)c2)cc1,–,active: 10 µM
O=C(NC(C(=O)N/N=C/c1cccc2ccccc12)c1n[nH]c(=O)c2ccccc12)c1ccccc1 (configuration not stated),–,"inconclusive: 25.1 µM [inhibitor, single point]"
Cc1cc(Cl)ccc1OCC(=O)O,inactive: 5.9%,–
CCOC(=O)c1nn(-c2ccc(Cl)cc2)c2nc(Nc3ccccc3)cc(=O)n12,–,"inconclusive: 15.8 µM [activator, partial curve]"
O=C(c1ccncc1)N(c1ccc2oc3c(c2c1)CCCC3)S(=O)(=O)c1cccc([N+](=O)[O-])c1,–,"inconclusive: 31.6 µM [inhibitor, single point]"
Cc1cc(C)cc(NS(=O)(=O)c2ccc3c(c2)CCCN3C(=O)C2CCC2)c1,inactive: 2.79%,–
Cn1c(=O)c2c(nc(N3CCCCC3)n2CCSc2nc3ccccc3s2)n(C)c1=O,–,"inconclusive: 31.6 µM [activator, single point]"
O=C(CN1C(=O)/C(=C\c2cccc(F)c2)Oc2ccccc21)N1CCN(c2ccccn2)CC1,–,"inconclusive: 39.8 µM [inhibitor, single point]"
CCc1ccccc1NC(=O)c1ccc2c(c1)N(Cc1cc(C)ccc1C)C(=O)c1ccccc1S2(=O)=O,–,active: 15.8 µM
Cc1ccc(SC/C(O)=C(\C#N)c2nc3ccccc3s2)cc1,–,active: 25.1 µM
CCOCCCn1c(SCC(=O)Nc2ccc(C)cc2)nc2ccccc2c1=O,–,"inconclusive: 39.8 µM [activator, single point]"
CC(=O)Oc1c(/C=C(\C#N)C(N)=O)[nH]c2ccccc12,inactive: -8.6%,–
COc1cccc(C(c2c(O)cc(C)n(Cc3ccco3)c2=O)N2CCN(c3ccccc3)CC2)c1 (configuration not stated),–,"inconclusive: 20 µM [inhibitor, partial curve, poor fit]"
O=C(CSc1nccn1Cc1ccc(Cl)cc1)Nc1ccc2c(c1)OCCO2,inactive: 0.926%,–
N#C/C(C(=O)Oc1ccccc1)=C1/Nc2ccccc2-c2ccccc21,–,active: 12.6 µM
COc1ccc(Br)cc1C1Sc2ccccc2NC2=C1C(=O)c1ccccc12 (configuration not stated),–,active: 15.8 µM
O=C(Nc1ccccc1)c1ccc(Br)c(S(=O)(=O)N2CCCCC2)c1,inactive: 6.85%,–
COc1ccc(NC(=O)C2CCC(CNS(=O)(=O)c3ccc(Br)s3)CC2)cc1OC (configuration not stated),inactive: 4.63%,–
S=C(c1ccc(N2CCCC2)cc1)N1CCCCC1,–,"inconclusive: 25.1 µM [inhibitor, single point]"
COC(=O)[C@@]1(Cc2ccc(OC)cc2)[C@H]2c3cc(C(=O)N(C)C)n(CCc4ccccn4)c3C[C@H]2CN1C(=O)c1ccccc1,–,"inconclusive: 15.8 µM [activator, partial curve]"
